Over roughly 4,500 sequences, “median log2 fold change of GCK-ALFA target abundance (FLAG IP / Myc IP barcode read proportion)” has its median near 0.078; the lowest 2% begin near -0.6. The list shows a part of the results.

Sequences and labels used below:
B1: GBRAP_53_6424 (protein)
chain: AAAAIAALRAQARELADQATKADAATQAALTAQINALLAQLKAAGAPDAEIAALAAEIAKRLKAAGAADSALVALAQGMAALGLDDATAAVAEEAVEELE
B2: GBRAP_166_4908 (protein)
chain: SNEERIKKLKEEAEKVIEELKEADEEEALELIIEFGELLRELKELGASEEEILELVRKLLKAVKEKGFSVAVAAGIVANEAEFDEEEIDKLDAIAKEVAA
B3: GBRAP_128_3539 (protein)
chain: SLEEVRARARAVMERIKASDVETARAIMKEFLAELKGLSLEEVEAAIDVLEELLPELTAEKLEAIADAMDEMRPELSPEKQNLVADLQVAALNEAEEKEE
B4: GBRAP_184_5212 (protein)
chain: EVVHRSVEAETAEEAIKKSEEVVAEAKAEGKKLVLHVFAKNMSLEEIEKVMEYLSKLKKEGLIEDAVLHVEDDKSEEEIDKLIELADKYGIRLVIALPDE
B5: GBRAP_128_3475 (protein)
chain: SVEAVVEETRRTMREIIEADLETARELAEELFARLAGLPLEAVEAAVEVIESLLPELSAEKLEILAEVADAARPAFDPEKAALLADLASEALLLAEEKEE
B6: GBRAP_83_6914 (protein)
chain: MKEITVVAAGDHIEEAFEAAIDLHKEGVDHIILEVIIRPEQFPTLEAGVARMLAAGVKLDLHVLVEGGTEEEAAALQARLEAIAAAAGRDVKVTVEVIKP
B7: GBRAP_35_5578 (protein)
chain: EDKEMLLETVRDLAEATIEAIKEGDLDLAIALLEALLRTAELAVEELANDAEALEEIAALLERVIAAIKEHLADDPRVQALLARLEALLARTKALLAAVK
B8: GBRAP_166_4911 (protein)
chain: SMEEKVEEAKKRIEELVKEMPKLDAEGQLEAAIEIAEVIRELKEAGASEEQIDEVLRFLAESLKKEGLDVKRLMAIVAAAAEFDEEEMDRVDEIVEEVLK
B9: GBRAP_52_5993 (protein)
chain: MREEARRIAEEAVELMLEGKEEEAEKLLREVAETKSEEFLELVAEELARLAEEAGPEERDAIVEVAIMLEDIMREKGFDEAIADDQLARVAAAAYEALLR
B10: GBRAP_150_3926 (protein)
chain: DLETLLTIVDTLIDLLEGIADGELSLVPHALKLAEAAREEAKELPEEIREPVLEKLERIIKYLKEIAAGAPEEERKKLIEEALRLAEEVRELVEKEIERS
B11: GBRAP_78_6692 (protein)
chain: EVEELLDKALEHLGKAASILAKMNTPEANDLLGEVLDVASTVEEALFGEADLEELKEAAKKLEEALKKAKKIDTPEAKEAAKELEKALKYLKEAIKKLEA
B12: GBRAP_184_5259 (protein)
chain: KVLERVVEAKNVEELKKKMEEIAKEALKSGADVIILLEVEKLTKEMIDALFESIKKLKESGYKGKITVGIDADLTEEMIDYAIEKADEAGVNLTLAIDEE
B13: GBRAP_52_5873 (protein)
chain: MLEEAVEKLKEAVEAMKAGKEEEAKKILKEIVEKFDDETIVEAVKKLAEEVLEKSLEEAKAFYETVELLSEIMIEEGRDENIASYLEAIAGATLYKVEQK
B14: GBRAP_78_6716 (protein)
chain: ELEKVLEKAIEVLNEAAKLALTLPEEKANEILDLIVEATNLLEEILEPGVKKEEAIKKLEEAAKLLKKAIELLGDEDPELRKKLEEALKLVKEALKIAKE
B15: GBRAP_52_5862 (protein)
chain: MREEIRKKLEEMLALVKAGDLEGAEKLAEELVKSLTEEEVELLIEVAAELALSLAPEDLDAMWTLTELIAKALEKAGFPEELVTLFEDEVGAAIAKVEAA
B16: GBRAP_166_4977 (protein)
chain: SQKEIVEKVKKYIDELAEKMKTANHEEKLELLAEAAEKIEEARKAGISKEQLKELIKYLIEKALAVGLTLSEVEGALRIIANLDEEEIDLLDEAIAEVKA
B17: GBRAP_128_3359 (protein)
chain: LDEELLKKAKELVEKILKADVEEAKELTKEILKLMKEATDEEAEAIVKILIEALPKLTAEKLEAIADAMREARPEATPYKANLIAEAEVEALNEAEEKEE
B18: GBRAP_184_5228 (protein)
chain: TTVNRSVEAKTEEELIAKIDAVVAEAAAAGEKLNLHAFAENVSLEGIRRIMAHLAELKAAGRIADATLVITDERSEEEIDELVALADEYGVKLVIALSEE
B19: GBRAP_35_5526 (protein)
chain: SSEETAAEMLAAFIEDLTLAVPDMPVEQLVALSLAAAKTARELAKELKDNLESLQLLLEAVEALIEAIRKHHGDDPLAQEAVAALEEVAKELKKRIKEAE
B20: GBRAP_160_4198 (protein)
chain: SEKIEEVIRLIREETEEVIALLDEESVEEVAVFAAVEFGSVLMEAVELGIENDEIEDIIADAGDAVVATLKAKADASVEELKAAIRAITDKAIEEIKKAA
B21: GBRAP_52_6085 (protein)
chain: MEEEIEERAEEIYEAIKAGDKEKALALIKKAIKEFSAEEIKRMLELTAKRVASLGDDAHELFVDILGEAEDLLIEAGISEEEALAIVGAAEAALARAVAA
B22: GBRAP_80_6783 (protein)
chain: MEEEIEKVIEEIEKIDPEVAKVVKEIVELLKEIGVPLEIILEIVETILDGKDLPKEELLKIAKEVLKEAKELAEYKDEFSPEDIGKMVLAVALTELEEAE
B23: GBRAP_160_3981 (protein)
chain: SAEIEKLKKEIKEIFEEAKEMIEGESYEERLAIIRVAVGEIILLVEEDPNTSDETVEKVAEIGDELVEYIEEHPELTEEEIKELIEEALEKILKVIDEDA
B24: GBRAP_52_6377 (protein)
chain: AVEEAKKLLREAIELIMKGGPKEEVEALAKKLLEYPEEVIEEAAEKLAEELKGWSPEEAEKALEAAIELSDILIELGLPEEVASYIEAEIGKAAYEVLQK
B25: GBRAP_78_6602 (protein)
chain: EVEELLEKALEELDKAEKLTKELPEEKRNELLSLLVEARSSLLEAFENKPDLKDLEEALKYVEEAIKLAKEIDTEEAKKLLKELEKAKEYLKKAIELLKK
B26: GBRAP_78_6619 (protein)
chain: ETKEKIIELLDRARDRMREIARREPEVRDLANEAAVLVGTAILMVDTGEESKEEIIEELEEALKVAKELLERLEGRDEESVKLAKEAIEDLKKAIELVKK
B27: GBRAP_184_5249 (protein)
chain: AVSSLELTVRSAEDIPAAVAAFAAHAAAHKGTLHVLLDAENLTTDEKATLVAALGAAAAAAGVTRLIIDLTEEVTEEEADKLIATADAHGVQLVLALKDE
B28: GBRAP_43_5785 (protein)
chain: SEELVAGALETAELLFELPEVSDEQKVRAAIAAFDLAADEGIDDKEAIAKVVKAAAASLSKAALEKLLAHAKELAKKHPELKATFDAAAATLAAAIAAKA
B29: GBRAP_52_5918 (protein)
chain: MKERIRKIAEEILEAAEAGKEEEMEKLIKKAVEELNTEELKELIEELAELTIERGPEYYDIAAKIFDILEDEVEEAGKDVEEIDYAIARAFGKIYKALQA

The target of this assay is GABARAP, O95166. In words: median log2 fold change of GCK-ALFA target abundance (FLAG IP / Myc IP barcode read proportion) (log2 ratio); each designed protein is fused to an ALFA-tag nanobody in HEK293 cells to bring the named protein to FLAG-tagged glucokinase (GCK); Myc marks an untargeted standard; higher = target protein stabilised (more abundant). Conditions: target protein: 3xFLAG-MCP-GCK-ALFA reporter; HEK293 landing pad (RPLP). The essentials: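 HEK293 landing-pad cells received a recombined binder library fused to the ALFA nanobody and were induced with 2 μg mL^−1 doxycycline, then transfected with a plasmid encoding a FLAG-tagged target and a Myc-tagged standard. Lysates were collected after 48 h for anti-FLAG and anti-Myc immunoprecipitation, and the circular RNA barcodes were reverse transcribed, amplified and sequenced. Target abundance for each binder is the median log2 ratio of FLAG to Myc barcode read proportions. Barcodes had to reach a proportion of at least 10^−7 in both replicates, each binder needed at least 3 barcodes per replicate, a pseudocount of 10^−6 was applied, and the two replicates were pooled.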
Sequence of GABARAP, O95166 (O95166 whole entry, the tested form may be a part): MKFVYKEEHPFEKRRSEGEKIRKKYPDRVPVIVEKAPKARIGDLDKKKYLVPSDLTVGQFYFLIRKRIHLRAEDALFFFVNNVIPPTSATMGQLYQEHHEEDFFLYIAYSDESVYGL
Regarding B1, the “median log2 fold change” value turned out to be 0.367.

For B2, the “median log2 fold change” value is -0.0494.

As for B3, the “median log2 fold change” value turned out to be 0.0799.

As for B4, the “median log2 fold change” value turned out to be 0.134.

Take B5: the “median log2 fold change” value was determined as 0.161.

Consider B6, for which the “median log2 fold change” value is -0.0485.

For the molecule B7, the “median log2 fold change” value was -0.85.

For B8, the “median log2 fold change” value was 0.203.

As to B9, the “median log2 fold change” value was -0.364.

As for B10, the “median log2 fold change” value is 0.227.

Consider B11, for which the “median log2 fold change” value is -0.128.

On to B12, for which the “median log2 fold change” value was determined as 0.225.

Consider B13, for which the “median log2 fold change” value is 0.134.

B14: the “median log2 fold change” value amounted to 0.202.

B15: the “median log2 fold change” value came out at 0.15.

B16: the “median log2 fold change” value stood at 0.288.

As to B17, the “median log2 fold change” value amounted to 0.418.

Turning to B18, the “median log2 fold change” value was 0.09.

With B19, the “median log2 fold change” value is -0.452.

With B20, the “median log2 fold change” value is -0.373.

As to B21, the “median log2 fold change” value was -0.146.

For B22, the “median log2 fold change” value turned out to be 0.0366.

In the case of B23, the “median log2 fold change” value was -0.219.

As for B24, the “median log2 fold change” value was -0.15.

Regarding B25, the “median log2 fold change” value came out at 0.165.

B26: the “median log2 fold change” value stood at 0.338.

In the case of B27, the “median log2 fold change” value is -0.0297.

As for B28, the “median log2 fold change” value was 0.176.

On to B29, for which the “median log2 fold change” value came to 0.0218.
